Whole data set: some 33,000 sequences, median “E-score (-0.5 to 0.5)” near -0.011, cut for the highest 2% near 0.28. Some of the results follow.
The sequences below were run against T1, Gcr1 (UniProt P07261) (assay: PBM E-score (8-mer binding enrichment) (E-score (-0.5 to 0.5)); higher = stronger / more preferred TF binding; most listed sequences are background and not binding sites). Settings: protein concentration: 100 nM; construct: GST-full length.
T1 sequence: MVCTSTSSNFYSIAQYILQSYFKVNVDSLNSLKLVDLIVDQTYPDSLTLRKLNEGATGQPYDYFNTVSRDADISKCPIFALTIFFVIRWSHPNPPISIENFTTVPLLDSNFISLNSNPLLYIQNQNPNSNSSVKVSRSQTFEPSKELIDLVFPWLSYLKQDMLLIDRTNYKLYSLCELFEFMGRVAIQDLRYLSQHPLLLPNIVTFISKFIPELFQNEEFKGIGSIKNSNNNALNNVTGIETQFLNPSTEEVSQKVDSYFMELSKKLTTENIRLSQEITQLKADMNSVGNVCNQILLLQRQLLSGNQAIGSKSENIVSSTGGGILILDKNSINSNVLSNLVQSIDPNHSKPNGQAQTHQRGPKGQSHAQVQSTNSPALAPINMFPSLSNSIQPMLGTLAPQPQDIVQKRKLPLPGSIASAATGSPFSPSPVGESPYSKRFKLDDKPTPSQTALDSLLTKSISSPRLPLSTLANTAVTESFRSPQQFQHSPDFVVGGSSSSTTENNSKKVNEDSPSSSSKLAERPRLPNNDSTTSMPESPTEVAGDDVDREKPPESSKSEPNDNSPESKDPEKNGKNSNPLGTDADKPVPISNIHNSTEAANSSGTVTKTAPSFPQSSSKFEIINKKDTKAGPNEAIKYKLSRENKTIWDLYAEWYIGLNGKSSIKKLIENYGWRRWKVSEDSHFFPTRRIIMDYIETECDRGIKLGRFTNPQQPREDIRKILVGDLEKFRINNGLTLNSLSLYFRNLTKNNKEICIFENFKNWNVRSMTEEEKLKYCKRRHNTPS
How it was run: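 Universal all-10-mer Agilent arrays, double-stranded by primer extension on fresh or once-stripped slides, were probed with about 100-200 nM GST-tagged yeast transcription factors made by PURExpress. Fluorescent anti-GST detected bound protein, and masliner normalised the scans. E-scores from the Universal PBM Analysis Suite were given to each ungapped eight-base word pooled with its reverse complement.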

Sequence | PBM E-score
GGACAAAC | -0.0583
AAACCCAG | 0.104
ACATCAAC | 0.126
CCACCAAG | 0.227
AATAACAC | 0.153
GACCAAGC | -0.0512
ACGGGTCA | -0.303
ACCTCCAA | -0.0916
ATGGAAAA | 0.0168
AAATTGAT | 0.212
ATTTGTGA | 0.0546
TCCTGCCA | 0.119
GAGCTAAA | -0.125
CCTGATCG | -0.0404
ATCCCATC | -0.0212
AAACTAAT | 0.036
GTTACAAC | 0.00785
ATCTTCGG | -0.104
ACGTGCCT | -0.102
ATTTGGGA | 0.301
AATCGAAC | -0.0628
ATGTCAAT | -0.0274

Sequence | PBM E-score
GTCCCCAC | 0.198
GAGTGGTA | 0.0824
AGCCTGCG | -0.318
CAGTTGTC | -0.0203
GTATCAGA | -0.0598
GGACTGCA | -0.13
CTTCGAAC | -0.114
GACTCACC | -0.256
GCCACTCA | 0.0462
TATAGGAA | 0.318
ACATCAGC | -0.183
CGGACCCC | -0.122
GACTAGAA | 0.217
ATCGGCGG | 0.108
CTTGGGTA | 0.0295
ATATTAGG | 0.139
AGCATGTC | -0.242
GGATAACA | -0.0742
ACGTTCAA | -0.0358
ATTGCAAT | -0.114
ATCGACAA | 0.0447
AGTACCCC | 0.0894

Sequence | PBM E-score
AGGATGGA | -0.0308
TAACGACA | 0.0292
GTAGCTCA | 0.208
CCCTAGAG | -0.0641
GCCTATCC | -0.0363
ATCAAAGA | -0.0208
GATTCGGC | -0.12
CCTGCGTC | -0.191
CAACGGGC | -0.0626
GCCAACGA | -0.191
AAATTTAG | 0.148
AACAAACA | 0.157
CCGGAGCG | 0.0872
GACGGTCC | -0.285
ACAAGTTG | 0.214
GATGTTCA | -0.12
CAACTTAG | 0.207
AAACGGAG | -0.235
GATTGTAA | -0.0982
AAGCTATT | -0.0804
ACGACGAG | -0.113
CTGTTATA | 0.00213

Sequence | PBM E-score
TCAGGGCA | -0.0108
TGCATCCA | 0.182
ACTACGCT | -0.087
GCACACCC | -0.0656
CCGAAGTC | 0.0182
CTACGCCA | -0.0727
ATGGGCGC | 0.187
ACGGGTTG | -0.0981
GGTAAGCA | -0.00581
AGCACGCA | -0.18
AAACCCCT | -0.183
ACATGAGA | 0.0532
ATTAGAAC | 0.149
TCTGTTAA | 0.0337
GACTAAGC | -0.126
CAGCTACA | 0.121
GCCTTGCC | -0.267
CAATACGA | 0.129
ACGGTCTG | -0.0534
GTGCCCAA | 0.041
